B1: Aph-1αL-HA H197K (natural protein)
chain: not shown
B2: Aph-1αL-HA H171K/H197K (natural protein)
chain: not shown
B3: Aph-1αL-HA H171K (natural protein)
chain: not shown

The results in this text go back to article PMC2857016 (The Journal of Biological Chemistry, 2010).

The target of this test is full-length β-amyloid precursor protein (FL APP) (human, UniProt P05067). Description: co-IP.
On to B1, for which the “Aph-1 co-immunoprecipitated with APP, % of WT” value is 52 % of WT.
The result for B2 reads 27 % of WT; that for B3, 59 % of WT.
